According to PubChem BioAssay AID2451 (National Center for Advancing Translational Sciences (NCATS), 2010):
About 2,100 (0.72%) of roughly 290,000 compounds were called active. The shares of active, inactive and inconclusive entries below differ from those in the screen. The call rests on the fitted dose curve; in most records, active means well fitted inhibition curve with a large enough effect; inconclusive means small, poorly fitted or top-dose-only effect, or effect the other way; inactive means flat fitted curve, though single readings scatter. Potencies of inconclusive entries are doubtful fits and often do not repeat.

These compounds were tested against Fructose-bisphosphate aldolase (Giardia intestinalis (strain ATCC 50803 / WB clone C6)) (UniProt A8B2U2) (assay: qHTS Assay for Inhibitors of Fructose-1,6-bisphosphate Aldolase from Giardia Lamblia). Settings: purified Giardia FBPA; series mostly up to 59.6 µM.
Sequence of UniProt A8B2U2 (A8B2U2 whole entry, looked up): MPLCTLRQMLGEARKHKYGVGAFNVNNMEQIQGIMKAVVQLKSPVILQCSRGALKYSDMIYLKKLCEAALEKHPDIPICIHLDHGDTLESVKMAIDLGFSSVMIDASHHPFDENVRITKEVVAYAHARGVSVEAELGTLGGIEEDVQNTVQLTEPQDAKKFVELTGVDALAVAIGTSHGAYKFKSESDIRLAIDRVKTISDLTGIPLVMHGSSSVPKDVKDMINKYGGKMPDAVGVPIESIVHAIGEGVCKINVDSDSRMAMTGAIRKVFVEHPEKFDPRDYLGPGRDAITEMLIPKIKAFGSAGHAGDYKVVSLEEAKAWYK
In short: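 Giardia FBPA (40 nM reagent) was preincubated 10 min at RT with compound (up to 57.5 uM final), then substrate plus GAPDH/TPI/NAD/arsenate coupling system with diaphorase/resazurin was added; resorufin fluorescence (525/598 nm) was read after 20 min.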
Further: nearly all actives have a fitted effect of over 55% in size.
Potency means the concentration at half of the fitted maximal effect; tags describe the fitted curve by direction and shape.

SMILES	Potency
CCCn1cc(S(=O)(=O)CC(=O)Nc2ccc(OC)cc2OC)c2ccccc21	inconclusive: 5.61 µM [inhibitor, single point]
Cc1cc(C)cc(NC(=O)[C@H](Cc2c[nH]c3ccccc23)NC(=O)[C@@H]2Cc3ccccc3CN2)c1	inconclusive: 11.2 µM [inhibitor, partial curve]
Cn1c(-c2nonc2NC(=O)c2ccc(C(C)(C)C)cc2)nc2ccccc21	inactive
CCN1C(=O)N/C(=C/c2ccc(C)o2)C1=O	inconclusive: 19.9 µM [inhibitor, single point]
COc1ccc(NC(=S)NC(=O)c2cncc(Br)c2)c(OC)c1	inconclusive: 3.55 µM [inhibitor, full curve]
CCCC(C(=O)NC1CCCC1)N(CC1CCCO1)C(=O)CNS(=O)(=O)c1ccccc1 (stereo unspecified)	inactive
O=C(CN1CCN(Cc2ccccc2Cl)CC1)N/N=C/c1ccccn1	inconclusive: 19.9 µM [inhibitor, single point]
CCC(=O)NC(/C=C/c1ccccc1)c1cc([N+](=O)[O-])c2cccnc2c1O (stereo unspecified)	inconclusive: 7.92 µM [activator, single point]
O=C(OCCN1CCOCC1)c1ccccc1	inconclusive: 28.2 µM [inhibitor, partial curve]
O=C(O)C1C2C=CC(O2)C1C(=O)NCc1ccc(Cl)cc1 (stereo unspecified)	inactive
Cc1ccc(NC(=O)Cc2ncon2)cc1Cl	inactive
O=C1CNC(=S)N1c1nc(-c2ccccc2)cs1	inactive
O=C(CNCC1CCCO1)Nc1ccc(N2CCCCCC2)cc1 (stereo unspecified)	inconclusive: 14.1 µM [inhibitor, partial curve]
COc1ccc(/C=C2\SC(=S)N(CCCC(=O)Nc3ccc(O)cc3)C2=O)cc1	inactive
CCCC(c1nnnn1CS(=O)(=O)c1ccc(C)cc1)N1CCN(C2CCCC2)CC1 (stereo unspecified)	inconclusive: 28.2 µM [inhibitor, single point]
CCN(CC)c1ccc(NC(=S)Nc2ccc(F)cc2)cc1	inconclusive: 11.2 µM [inhibitor, partial curve]
CC(=O)Nc1cccc(NC(=O)CSc2nc(C)c(C)c(C)c2C#N)c1	inactive
CCOC(=S)SCc1cn2ccccc2n1	inconclusive: 17.7 µM [inhibitor, single point]
c1ccc2[nH]c3cc4ncnc4cc3nc2c1	inconclusive: 3.97 µM [inhibitor, full curve]
Cc1cc(Cl)ccc1OCC(=O)N/N=C/c1ccncc1	inactive
CCOC(=O)c1c(NC(=O)Cn2cnc([N+](=O)[O-])n2)sc(C)c1C	inconclusive: 7.06 µM [inhibitor, single point]
CC1=NN(c2ccccc2)C(=O)C1N=Nc1ccc(N)cc1 (stereo unspecified)	inconclusive: 25.1 µM [inhibitor, single point]
CC1(C)OC(c2ccccc2)=C/C(=C/C=Nc2ccccc2)O1	inactive
CC1CC(=O)N(c2ccc(N(C)Cc3ccccc3)c([N+](=O)[O-])c2)C1=O (stereo unspecified)	inactive
CC(=O)Oc1ccccc1C(=O)Nc1ccccc1C(=O)N1CCCCC1	inactive
COc1cc(C(=O)NCC2(c3ccccc3)CCCC2)cc(OC)c1OC	inactive

SMILES	Potency
CCc1ccccc1NC(=O)CN(c1ccc(OC)cc1OC)S(=O)(=O)c1ccccc1	inactive
Fc1ccccc1CNC1CN2CCC1CC2 (stereo unspecified)	inactive
CN1CCN(CC(=O)N2CCn3c4c(c5cc(C6CCCCC6)ccc53)CCCC42)CC1 (stereo unspecified)	inactive
O=C(Nc1ccccc1)C1=C[C@H](c2ccc3c(c2)OCO3)C[C@H](OCc2ccc(CO)cc2)O1	inactive
Cc1ccc(-c2nc3ncccc3o2)cc1NC(=S)NC(=O)c1ccco1	inconclusive: 3.97 µM [inhibitor, single point]
S=c1nc2ccccc2c2nc(-c3ccccc3Cl)[nH]n12	inactive
COC(=O)/C(C#N)=C/c1ccc(OC(=O)c2ccccn2)cc1	inconclusive: 44.6 µM [inhibitor, single point]
O=C1NCCCC2c3cc(O)c4ccccc4c3OC12N1CCCCC1 (stereo unspecified)	active: 0.561 µM
O=[N+]([O-])c1ccc(CN2CCN(c3ccccc3Cl)CC2)o1	inconclusive: 17.8 µM [inhibitor, single point]
Oc1ccc(NC(=S)Nc2ccc(O)cc2)cc1	inconclusive: 11.2 µM [inhibitor, partial curve]
COc1ccccc1Nc1nc(N)nc(CSc2ncccn2)n1	inactive
CN1CCN(Cc2cc(C(C)(C)C)c(O)c(C(C)(C)C)c2)CC1	inconclusive: 19.9 µM [inhibitor, partial curve]
COc1ccc(CN2CCN(Cc3ccc(OC)c(OC)c3OC)CC2)cc1	active: 14.1 µM
CC(=O)NN1C(=O)/C(=C/c2ccc(Br)o2)SC1=S	inconclusive: 25.1 µM [inhibitor, single point]
Nc1c(Cl)cc(-c2[nH]c3cc(C(=O)NCCO)ccc3c(=O)c2O)cc1Cl	inconclusive: 15.8 µM [inhibitor, partial curve, poor fit]
O=C(Nc1nc(-c2cc(F)ccc2F)cs1)C1=NN(c2ccccc2)C(=O)CC1	inactive
O=C(Nc1ccccc1C(F)(F)F)c1ncn[nH]1	inconclusive: 15.8 µM [inhibitor, partial curve]
CN(C)c1ccc(NC(=S)c2ccccn2)cc1	inconclusive: 7.92 µM [inhibitor, full curve, poor fit]
COc1ccc(-c2nnc(SCC(=O)c3ccc(O)cc3O)o2)cc1	inactive
COCC(=O)Nc1ccc([N+](=O)[O-])cc1C	inactive
COc1ccc2cc(CCNC(=O)c3ccco3)c(=O)[nH]c2c1	inactive
COc1ccc(C)cc1N(CC(N)=O)S(=O)(=O)c1ccc(C)cc1	inconclusive: 25.1 µM [inhibitor, single point]
COc1ccc(C(=O)NC(=S)NNC(=O)c2ccccc2O)cc1	inconclusive: 31.6 µM [activator, partial curve]
COc1cc(OC)cc(C(=O)NC(=S)Nc2ccc3[nH]c(=O)[nH]c3c2)c1	inactive
Cc1ccc(/C=C/C(=O)Nc2cc(=O)n(C)c(=O)n2C)o1	inconclusive: 19.9 µM [inhibitor, partial curve]
